According to the supplement of paper PMC10369915:
The list shows a part of the results. No stated cut-off is given here; in the data, active = 3.2 or more and inactive = the rest. Most of these values are background signal.

Assays:
Assay in all cases: enrichment score (SH2-bound / input frequency) (ratio); bacterial display of known human phosphotyrosine sites (pTyr-Var adds point mutants) read by sequencing; higher = stronger binding; tyrosines were phosphorylated by kinases first
Details in all cases: peptide library: pTyr-Var
SHP2 C-SH2 domain E139D = molecular target: SHP2 C-SH2 domain E139D
[1] = molecular target: SHP2 C-SH2 domain wild-type
SHP2 N-SH2 domain L43F = molecular target: SHP2 N-SH2 domain L43F
SHP2 N-SH2 domain T42A = molecular target: SHP2 N-SH2 domain T42A
SHP2 N-SH2 domain T52S = molecular target: SHP2 N-SH2 domain T52S
[2] = molecular target: SHP2 N-SH2 domain wild-type
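Further: displayed peptides selected on beads carrying the immobilized SH2 domain, with library peptides lacking any tyrosine serving as negative controls.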

Binder	enrichment score (SHP2 C-SH2 domain E139D)	enrichment score [1]	enrichment score (SHP2 N-SH2 domain L43F)	enrichment score (SHP2 N-SH2 domain T42A)	enrichment score (SHP2 N-SH2 domain T52S)	enrichment score [2]
VKGGAYFPVTV [MCCC2_Y145_YF]	inactive: 0.833	inactive: 0.773	inactive: 0.641	inactive: 0.708	inactive: 0.743	inactive: 0.891
FGRTFYNQAIM [MCCC2_Y196]	inactive: 1.43	inactive: 1.57	inactive: 1.13	inactive: 1.3	inactive: 0.975	inactive: 1.3
FGHTFYNQAIM [MCCC2_Y196_R193H]	inactive: 1.48	inactive: 1.2	inactive: 1.19	inactive: 1.29	inactive: 1.24	inactive: 1.11
EERNPYYSSAR [MCCC2_Y520_G517R]	inactive: 0.585	inactive: 0.449	inactive: 0.453	inactive: 0.468	inactive: 0.534	inactive: 0.603
EERNPYFSSAR [MCCC2_Y520_G517R_YF]	inactive: 0.559	inactive: 0.516	inactive: 0.572	inactive: 0.468	inactive: 0.398	inactive: 0.686
EEGNPYYSGAR [MCCC2_Y520_S523G]	inactive: 0.67	inactive: 0.52	inactive: 0.484	inactive: 0.566	inactive: 0.573	inactive: 0.499
EEGNPSYSSAR [MCCC2_Y520_Y520S]	inactive: 0.51	inactive: 0.508	inactive: 0.49	inactive: 0.568	inactive: 0.432	inactive: 0.58
KNNDGYIDYAE [MCFD2_Y135]	inactive: 0.423	inactive: 0.535	inactive: 0.522	inactive: 0.45	inactive: 0.584	inactive: 0.543
KNNDGYTDYAE [MCFD2_Y135_I136T]	inactive: 0.504	inactive: 0.575	inactive: 0.524	inactive: 0.497	inactive: 0.49	inactive: 0.495
KNNDGYTDFAE [MCFD2_Y135_I136T_YF]	inactive: 0.541	inactive: 0.433	inactive: 0.465	inactive: 0.508	inactive: 0.578	inactive: 0.526
DGFTDYAEFAK [MCFD2_Y138_I136T_YF]	inactive: 0.837	inactive: 0.67	inactive: 0.644	inactive: 0.645	inactive: 0.639	inactive: 0.853
DGNIDYAEFAK [MCFD2_Y138_Y135N]	inactive: 0.696	inactive: 0.612	inactive: 0.554	inactive: 0.455	inactive: 0.684	inactive: 0.472
DGFIDYAEFAK [MCFD2_Y138_YF]	inactive: 0.927	inactive: 0.674	inactive: 0.734	inactive: 0.723	inactive: 0.716	inactive: 0.793
CLLHCYFSQIR [MCM3AP_Y873]	active: 3.2	inactive: 3	inactive: 3.11	inactive: 2.45	inactive: 2.81	active: 3.37
RKPDIYGRLAS [MCM4_Y459_E460G]	inactive: 1.35	inactive: 1.3	inactive: 1.15	inactive: 0.847	inactive: 1.14	inactive: 1.16
YEEDPYLVVNP [MCM6_Y810]	inactive: 0.515	inactive: 0.647	inactive: 0.643	inactive: 0.601	inactive: 0.536	inactive: 0.691
FKEDPYLVVNP [MCM6_Y810_E806K_YF]	inactive: 1.08	inactive: 1.03	inactive: 0.833	inactive: 0.865	inactive: 0.902	inactive: 0.957
NLPGGYSGSVK [MCPH1_Y606]	inactive: 0.722	inactive: 0.872	inactive: 0.661	inactive: 0.702	inactive: 0.7	inactive: 0.903
NFPGGYSGSVK [MCPH1_Y606_L602F]	inactive: 0.9	inactive: 0.647	inactive: 0.763	inactive: 0.668	inactive: 0.861	inactive: 0.664
